Screen size: about 3,200 compounds; about 300 (9.4%) showed activity. Only a part is listed here, and it is no random draw.
Test system: A673/TR/shEF
Experiment: cell viability (LOESS-normalised, relative to median of negative controls) (log2 ratio); higher = more viable cells (less compound effect), active = hit call of the paper (over 3 MAD below the median)
Details: treatment time: 72 h
Method in brief: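 Doxycycline, present or absent from 24 h before compounds, was used to induce EWS-FLI1 shRNA knockdown in A673/TR/shEF Ewing sarcoma cells at 1,500 per well in 384-well plates. Cells then received library compounds at two or more concentrations, or DMSO controls, for three days. Viability was measured by CellTiter-Glo luminescence on an Envision reader, and per-plate LOESS correction, division by the negative-control median and log2 transformation followed.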

[1] = 0.103 µM, library screen: screen3, EWS-FLI1 expression: high (no doxycycline)
[2] = 0.103 µM, library screen: screen3, EWS-FLI1 expression: low (doxycycline-induced shRNA knockdown)
[3] = 0.25 µM, library screen: screen2, EWS-FLI1 expression: high (no doxycycline)
[4] = 0.25 µM, library screen: screen2, EWS-FLI1 expression: low (doxycycline-induced shRNA knockdown)
[5] = 0.308 µM, library screen: screen3, EWS-FLI1 expression: high (no doxycycline)
[6] = 0.308 µM, library screen: screen3, EWS-FLI1 expression: low (doxycycline-induced shRNA knockdown)
[7] = 0.926 µM, library screen: screen3, EWS-FLI1 expression: high (no doxycycline)
[8] = 0.926 µM, library screen: screen3, EWS-FLI1 expression: low (doxycycline-induced shRNA knockdown)
[9] = 2.5 µM, library screen: screen2, EWS-FLI1 expression: high (no doxycycline)
[10] = 2.5 µM, library screen: screen2, EWS-FLI1 expression: low (doxycycline-induced shRNA knockdown)
[11] = 2.8 µM, library screen: screen3, EWS-FLI1 expression: high (no doxycycline)
[12] = 2.8 µM, library screen: screen3, EWS-FLI1 expression: low (doxycycline-induced shRNA knockdown)
[13] = 8.3 µM, library screen: screen3, EWS-FLI1 expression: high (no doxycycline)
[14] = 8.3 µM, library screen: screen3, EWS-FLI1 expression: low (doxycycline-induced shRNA knockdown)
[15] = 25 µM, library screen: screen3, EWS-FLI1 expression: high (no doxycycline)
[16] = 25 µM, library screen: screen3, EWS-FLI1 expression: low (doxycycline-induced shRNA knockdown)
[17] = 0.25 µM, library screen: screen1, EWS-FLI1 expression: high (no doxycycline)
[18] = 0.25 µM, library screen: screen1, EWS-FLI1 expression: low (doxycycline-induced shRNA knockdown)
[19] = 2.5 µM, library screen: screen1, EWS-FLI1 expression: high (no doxycycline)
[20] = 2.5 µM, library screen: screen1, EWS-FLI1 expression: low (doxycycline-induced shRNA knockdown)

Measured: cell viability (log2)

CCOC(=O)C1=C(C)NC(C)=C(C(=O)OC)C1c1cccc(Cl)c1Cl (stereo not given)
inactive: [1] 0.188 | [2] -0.0247 | [3] 0.0436 | [4] 0.0605 | [5] 0.0751 | [6] 0.0708 | [7] 0.111 | [8] 0.074 | [9] 0.171 | [10] 0.0778 | [11] 0.149 | [12] 0.0833 | [13] 0.107 | [14] 0.0632 | [15] 0.139 | [16] 0.152

Cc1nc2sccn2c(=O)c1CCN1CCC(=C(c2ccc(F)cc2)c2ccc(F)cc2)CC1
inactive: [17] 0.091 | [18] 0.0157 | [3] 0.116 | [4] 0.093 | [19] 0.026 | [20] 0.1 | [9] 0.0995 | [10] 0.149

CO[C@H]1C[C@H](O[C@@H]2/C(C)=C/C[C@@H]3C[C@@H](C[C@]4(CC[C@H](C)[C@@H](C5CCCCC5)O4)O3)OC(=O)[C@@H]3C=C(C)/C(=N/O)[C@H]4OC/C(=C\C=C\[C@@H]2C)[C@]43O)O[C@@H](C)[C@@H]1O
inactive: [17] 0.0971 | [18] 0.0732 | [19] 0.0965 | [20] 0.0106

C[C@H](CCC(=O)O)[C@H]1CC[C@H]2[C@@H]3C(=O)C[C@@H]4CC(=O)CC[C@]4(C)[C@H]3CC(=O)[C@]12C
inactive: [17] 0.11 | [18] 0.0437 | [19] 0.164 | [20] 0.0419

O=C1c2c(O)ccc(O)c2C(=O)c2c(NCCNCCO)ccc(NCCNCCO)c21
active: [1] -0.962 | [2] -0.246 | [17] -1.93 | [18] -0.576 | [3] -2.25 | [4] -0.221 | [5] -1.25 | [6] -0.351 | [7] -1.51 | [8] -0.325 | [19] -4.22 | [20] -3.67 | [9] -2.87 | [10] -0.985 | [11] -2.02 | [12] -0.758 | [13] -3.96 | [14] -3.09 | [15] -4.26 | [16] -4.25

CCN1C(=O)C=CC1=O
inactive: [3] 0.0966 | [4] 0.079 | [9] 0.138 | [10] 0.057

COc1cc(O)cc(OC)c1OC
inactive: [17] 0.0343 | [18] 0.0156 | [19] 0.173 | [20] 0.0956

C[N+](C)(C)CCOC(N)=O
inactive: [17] 0.175 | [18] 0.136 | [3] 0.265 | [4] 0.0997 | [19] 0.189 | [20] 0.23 | [9] 0.197 | [10] 0.12

COC(=O)C[C@H]1C2(C)CC34OC5(C)O[C@@]6([C@H](OC)C(OC(=O)C(C)C)[C@]7(C)C(/C(=C(/OC)C(C)C)C(=O)O[C@H]7c7ccoc7)[C@@]6(O5)[C@H](OC)[C@@]3(OC)C2OC(C)=O)[C@]14C (stereo not given in full)
inactive: [17] 0.14 | [18] 0.13 | [19] 0.0986 | [20] 0.154

Cc1ccc(Nc2nccc(N(C)c3ccc4c(C)n(C)nc4c3)n2)cc1S(N)(=O)=O
inactive: [1] -0.00021 | [2] 0.0417 | [5] 0.0983 | [6] 0.0646 | [7] 0.0364 | [8] 0.00608 | [11] 0.0526 | [12] 0.0214 | [13] 0.1 | [14] -0.0412 | [15] 0.0612 | [16] 0.0126

CCN(CC)CCNC(=O)c1cc(Br)c(N)cc1OC
inactive: [17] 0.0664 | [18] 0.126 | [19] 0.0877 | [20] 0.0941

OC(CCN1CCCCC1)(c1ccccc1)c1ccccc1
inactive: [17] 0.047 | [18] 0.109 | [19] 0.0827 | [20] 0.136

COc1ccc2c(c1)O[C@H]1c3ccc(O)cc3OC[C@@H]21
inactive: [17] 0.225 | [18] 0.129 | [19] 0.184 | [20] 0.206

O=c1cc(N2CCOCC2)oc2c(-c3ccccc3)cccc12
active: [19] -0.134 | 25 µM, library screen: screen1, EWS-FLI1 expression: high (no doxycycline) -0.489 | 25 µM, library screen: screen1, EWS-FLI1 expression: low (doxycycline-induced shRNA knockdown) -0.462
inactive: 0.025 µM, library screen: screen1, EWS-FLI1 expression: high (no doxycycline) 0.213 | 0.025 µM, library screen: screen1, EWS-FLI1 expression: low (doxycycline-induced shRNA knockdown) 0.0453 | [17] 0.204 | [18] 0.0333 | [3] 0.135 | [4] 0.11 | [20] 0.0932 | [9] 0.15 | [10] 0.0123

CCOC(N)=O
inactive: 0.025 µM, library screen: screen2, EWS-FLI1 expression: high (no doxycycline) 0.095 | 0.025 µM, library screen: screen2, EWS-FLI1 expression: low (doxycycline-induced shRNA knockdown) 0.0554 | [17] 0.0929 | [18] 0.0358 | [3] 0.159 | [4] -0.00215 | [19] 0.118 | [20] 0.0386 | [9] 0.0866 | [10] 0.0762 | 25 µM, library screen: screen2, EWS-FLI1 expression: high (no doxycycline) 0.111 | 25 µM, library screen: screen2, EWS-FLI1 expression: low (doxycycline-induced shRNA knockdown) 0.0341
